Assay results published in PubChem BioAssay (NCI).
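Values below derive from 48-hour exposures of cells grown in 96-well plates, with endpoints linearly interpolated between the two concentrations bracketing the appropriate inhibition level. GI50: concentration for 50% inhibition of growth. Definition used: TGI = concentration required for complete inhibition of growth.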

Test system: NCI-H322M lung
Assay: NCI tumour cell line growth inhibition, 48 h

| SMILES | GI50 [µM] | TGI [µM] |
| --- | --- | --- |
| CCN1C(=O)N(CC)C2SC(N/N=C/c3ccc(F)cc3)=NC21 (centres undefined) | 0.902 | > 100 |
| NC(=O)c1c(NC(=O)c2ccccc2C(F)(F)F)sc2c1CCC(=O)C2 | 4.79 | 80.4 |
